# Experimental data: the supplement of paper PMC11417369
# This is one part of the list.
# Test system: PF3D7_0420300 AP2 domain 1 (GST-tagged)
# Test: gcPBM binding intensity (ln(normalized median fluorescence intensity)); higher = stronger DNA binding
# How it was run: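 The binding buffer was 1× PBS containing 1% milk, 0.2 mg/ml BSA, 0.5% salmon testes DNA and 0.03% Triton X-100. In it, GST-tagged P. falciparum DNA-binding domains expressed in E. coli were applied for 1 h to an Agilent 4 × 180k array of primer-extended double-stranded 36-bp intergenic genomic probes plus negative controls. Binding intensity, read with Alexa488 anti-GST antibody and a 488 nm scan, is the highest Masliner-normalised natural-log median intensity across replicate spots of either probe orientation.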
row,Sequence,gcPBM binding intensity (ln)
1,TATATATAAGAAAAAAGTACAGATATATATATATTC [XGTACX_site4788],9.57
2,TATACAGACAGACACACACACATATATATATATATA [CACACA_site1734],9.82
3,TTTTAAGAAAAAAAATGTACACATGAAAATAGTGAA [XGTACX_site5898],9.11
4,AAATTTTCACTTCAAAAACACACGTATTTTTTTCCT [CACACA_site3813],9.25
5,TGTTATATTATAACTACACACGTATTATGTTATATC [CACACA_site839],9.47
6,AGAATTAAAATAATACGTACACACATGTATAATACA [XGTACX_site1878],9.71
7,ATTATATCTATAATATGTACATATTATAATATATAT [XGTACX_site3211],9.17
8,AATTGTTAATGGTACGAACACACATATAAAGATGCA [CACACA_site2043],9.49
9,ACCTCTCATATGTTATAAACAAAATGAAAATTTCAT [XGTACX_negctrl_site303],9.17
10,ATTTTATTTTATTAAGTGCAAAAAAAAAAAAAGAAA,8.94
11,TGTACAATATAAGGAGCACACAAAAATGGATAAATA [CACACA_site8216],9.65
12,ATATGGCATAAAACATGTACATGTTCATAAATATAT [XGTACX_site1924],9.26
13,ATAATAAGAAAAAAAAAAAAAAAAAAAAAAAAAAAA [TGCATGCA_negctrl_site377],8.49
14,ATATTGAAATGTTAATAGAAATATATGGTTAAATTG [XGTACX_negctrl_site212],9.25
15,ATGTATATAAATAGGTGTACATATAAGGTGTTAAGC [XGTACX_site5465],9.88
16,TACACAAACGTTATACGTACACAGGTTTTTCTTTTA [XGTACX_site5427],9.37
17,TCTATTTATATGTATTGTACAATATAGATGTGTATT [XGTACX_site5646],9.35
18,CCTAAATAATATCTATCACACACGCATATATACATA [CACACA_site8838],9.56
19,TTATATTTATATTTATGTACATATTTTGTGTGAAAA [XGTACX_site2367],9.18

row,Sequence,gcPBM binding intensity (ln)
1,AAATTAAAAATAATTACACACATAGAAAAATTATAT [CACACA_site2275],9.65
2,GTAATACACAGACACACACACATACACATATTTATA [CACACA_site7313],10
3,AGTGTATATAGAAACATACACACATATTAATTTTAC [CACACA_site3127],9.42
4,ATATATATGCATTCAAGTACAAAAATATATGTTAAA [XGTACX_site910],9.22
5,TAGCTGTTCAAAAAATGTACATATATAATATATATA [XGTACX_site5842],9.02
6,TTCTATATATAATATTGTACTTAATTATTTTATTTT [XGTACX_site2701],9.31
7,ATATAATAACATAACACACACATGTATTTATAGGTG [CACACA_site359],9.87
8,ACATTATAATATTATTGTACTATATATATAATATAT [XGTACX_site2291],9.18
9,AAAAAAAAAAAAAAAACACACATATATATATAATAT [CACACA_site1159],9.44
10,GATAATCAGAATGGGGTGCAAAGAAAAAAAAAAAAA,9.12
11,TTATTGAACTTTTATAAAACCTGTATTATTATCTCT [CACACA_negctrl_site767],9.29
12,TTATATTAATAATAAAGTACAAAAAATCATATATAA [XGTACX_site799],9.22
13,TCCAGGCTACACTCTAGTACTCGTAGGGTTATGAGA [XGTACX_site4945],9.09
14,TATTTCTTATTACATACACACATATACATATATGAC [CACACA_site3201],9.57
15,ATATATATATATATATGTACATATGTTAGGATCAAA [XGTACX_site8626],9.35
16,ATGACATATAAATATACACACATACGTAAGTATATT [CACACA_site5058],9.36
17,TACATACTAAAAAAATGTACTTGTATTGTTTTTTTA [XGTACX_site8357],9.03
18,GAAATATTTGTAAAAACATGCATGGTACTTTTAAAA [TGCATGCA_site6],9.2
19,ACATAAGAATTTTTATGTACTCATAATATTTTATAT [XGTACX_site2398],8.98

row,Sequence,gcPBM binding intensity (ln)
1,TTATTTAACGTATTCTCACACATATATATATATAAT [CACACA_site5226],9.35
2,TATATATATATATACACATGCAAAAATTTTTAATTT [TGCATGCA_site82],9.29
3,TTTCTATATGGATTTGCACACATAAAAATGCTTATA [CACACA_site8751],9.37
4,TCTTTAATGATGTGTACACAAGAAAACATTGTTAAG [CACACA_site5299],9.26
5,TAGAAGCATCATTTTACACACATGCAAATGTAAAAT [CACACA_site1893],9.33
6,AAAAATAAGAGCGTAGCACACACGCATTTTATAAAT [CACACA_site8147],9.3
7,TTAAATTATTAGAGAGTGCATTATATATATTATACA [GTGCAC_site9711],8.98
8,TACTGTTATAAATGTGGTACTAATATTATACATATA [XGTACX_site5116],9.25
9,GTGTGATGGTCCAATATACACACTTAAAAAAAAAAA [CACACA_site2426],9.03
10,GTGGAATAATATATATGTACATATTTAAAATATTTA [XGTACX_site3499],9.08
11,AATGGTCTTTTCAACACACGTACATAAAAATATTAT [CACACA_site2571],9.44
12,ATTTTTTTACAAAAATGTACACATGAAATATGTAAT [XGTACX_site1372],9.15
13,TGACAACATAGAGGGGCACACACATATATACATAAA [CACACA_site8550],9.87
14,TAAAAGTATATATATACACACATAAATATATCTGTA [CACACA_site4537],9.25
15,TATTATTTTAGAATGCGTACTTATAAAATATTTTAT [XGTACX_site867],9.12
16,ATATATATATATATTACACACTTTTTCTTTTTTTTT [CACACA_site2780],9.47
17,ATAATTCCAAGAATTTCATATATCTGAATTTTAGGT [GTGCAC_negctrl_site283],8.96
18,AATAAACATAAATAAAAATTATAAAATATATATATG [CACACA_negctrl_site1709],9.18
19,TTTACATTTCAGTAGACACACAAAAAATAATACTAA [CACACA_site512],9.28
